Assay results reported in PubChem BioAssay AID686979 (National Center for Advancing Translational Sciences (NCATS), 2013).
Hit rate of the full screen: of about 420,000 compounds, about 50,000 (12%) were called active. Inconclusive results, whose numbers are uncertain, are shown with a selection of clear calls. Calls follow the shape of the dose curve; as a rule, active = well fitted inhibition curve with a large enough effect; inconclusive = small, poorly fitted or top-dose-only effect; inactive = flat fitted curve, though single readings scatter. Potencies of inconclusive entries are left out as doubtful fits.

Assay: qHTS for Inhibitors of human tyrosyl-DNA phosphodiesterase 1 (TDP1): qHTS in cells in presence of CPT; also: nearly all actives have a fitted effect of over 55% in size
Conditions: chicken DT40 Tdp1-/-;hTDP1 cells + 20 nM CPT, ATP luminescence, 48 h; series mostly up to 46.2 µM
How it was run: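 Chicken DT40 Tdp1-/- cells complemented with human TDP1, 400 cells/well, exposed to compounds plus 20 nM camptothecin for at least 48 h at 37 C; viability read as ATP content by CellTiter-Glo luminescence.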
Potency is read from the fitted curve at half-maximal effect; tags tell the direction and shape of the fitted curve.

Q: Which Potency does the source give for `Cc1cccc(Cn2nc(C)cc2NC(=O)Cn2cc([N+](=O)[O-])cn2)c1` here?
A: The Potency was inconclusive [inhibitor, single point].

Q: For `Cc1onc(-c2ccccc2Cl)c1C(=O)Nc1nnc(-c2ccc(F)cc2)s1`, which Potency is on record?
A: The Potency was “inactive”.

Q: For `COc1ccc(O)c(-c2[nH]ncc2C(=O)c2cccc(C)c2)c1`, which Potency is on record?
A: Its Potency is “inactive”.

Q: With `CC1(c2nnc(-c3ccncc3)o2)CC(c2ccc(F)cc2)=NO1` (stereo not given) as the compound, how does the Potency read?
A: The Potency was inconclusive [inhibitor, partial curve].

Q: With `Cc1cc(OCC(=O)Nc2sc3c(c2C(N)=O)CCCC3)ccc1C(C)C` as the compound, how does the Potency read?
A: The Potency was “inactive”.

Q: For `C/C(CCC1CC(C)OC1=O)=N\NC(N)=S` (stereo not given), which Potency is on record?
A: The Potency was inconclusive [inhibitor, single point].

Q: With `COc1ccc(CCNC(=O)c2cc(C3CC3)nc3c2cnn3C(C)C)cc1` as the compound, how does the Potency read?
A: The Potency was inconclusive [inhibitor, single point].

Q: For `CCOC(=O)Cn1c(CN2CCN(C(c3ccccc3)c3ccccc3)CC2)nc2c1c(=O)n(C)c(=O)n2C`, which Potency is on record?
A: Its Potency is inconclusive [inhibitor, single point].

Q: Which Potency does the source give for `CCC(C)N1CCNCC1` (stereo not given) here?
A: Its Potency is “inactive”.

Q: With `Cc1ncoc1C(=O)Nc1ncc([N+](=O)[O-])s1` as the compound, how does the Potency read?
A: The Potency was inconclusive [inhibitor, single point].

Q: For `CCc1ccc(C(=O)c2cn(CC(=O)Nc3ccc(F)cc3)c3cc4c(cc3c2=O)OCO4)cc1`, which Potency is on record?
A: The Potency was inconclusive [inhibitor, partial curve].

Q: Which Potency does the source give for `COc1cc(SC#N)ccc1N=Cc1c(C)[nH]n(-c2ccc(Cl)cc2)c1=O` here?
A: The Potency was active: 2.59 µM.

Q: Which Potency does the source give for `CCN1C[C@@H]2[C@@H]3C(=O)N(C)C(=O)[C@@H]3[C@](CC)(C1=O)N2C(=O)c1ccc(Cl)cc1` here?
A: Its Potency is “inactive”.

Q: For `CC(C)C[C@H](NC(=O)c1[nH]cnc1C(=O)N[C@@H](C)c1ccccc1)C(=O)OC(C)(C)C`, which Potency is on record?
A: Its Potency is inconclusive [inhibitor, single point].

Q: With `COC(=O)C[C@@H]1CC[C@H](NS(=O)(=O)c2cccc(F)c2)[C@@H](CO)O1` as the compound, how does the Potency read?
A: The Potency was “inactive”.

Q: With `COc1ccc2c(c1)OC[C@H]1[C@H]2N2C(=O)CN(Cc3ccco3)C(=O)[C@@]2(C)[C@H]1c1ccccc1` as the compound, how does the Potency read?
A: Its Potency is inconclusive [inhibitor, single point].

Q: Which Potency does the source give for `Oc1csc(Cc2nc(-c3ccc(Br)cc3)cs2)n1` here?
A: The Potency was “inactive”.

Q: Which Potency does the source give for `Cn1c(N)c(C(=O)COC(=O)/C=C/c2ccc(OC(F)F)cc2)c(=O)n(C)c1=O` here?
A: The Potency was inconclusive [inhibitor, single point].

Q: With `CCCCn1nnnc1C(CC)N1CCN(C/C=C/c2ccccc2)CC1` (stereo not given) as the compound, how does the Potency read?
A: Its Potency is inconclusive [inhibitor, single point].

Q: For `O=C(NCc1cccc(F)c1)c1noc2c1CCCC2`, which Potency is on record?
A: Its Potency is inconclusive [inhibitor, single point].

Q: Which Potency does the source give for `CC1Cc2ccccc2N1C(=O)CSc1nnc2c(n1)[nH]c1ccccc12` (stereo not given) here?
A: Its Potency is inconclusive [inhibitor, single point].

Q: For `CSc1ccccc1NC(=O)CN1C(=O)C2CC=CCC2C1=O` (stereo not given), which Potency is on record?
A: Its Potency is “inactive”.

Q: Which Potency does the source give for `COc1ccccc1-c1noc(-c2ccc(N3CCC(C)CC3)c([N+](=O)[O-])c2)n1` here?
A: The Potency was inconclusive [inhibitor, single point].

Q: Which Potency does the source give for `CNc1nc(-c2ccccc2OC)nc2ccccc12` here?
A: The Potency was inconclusive [inhibitor, single point].

Q: For `CCOc1ccc(C(=O)CN2CCN(S(=O)(=O)c3ccc(F)cc3)CC2)cc1`, which Potency is on record?
A: Its Potency is inconclusive [inhibitor, partial curve, poor fit].

Q: For `N#Cc1ccc(C(=O)NC(=S)N2CCOCC2)cc1`, which Potency is on record?
A: The Potency was “inactive”.

Q: With `Cc1ccc(CN2CCN(/N=C\C(Br)=C\c3ccccc3)CC2)cc1` as the compound, how does the Potency read?
A: Its Potency is active: 2.59 µM.

Q: Which Potency does the source give for `O=C(CN1CCCC1)Nc1cc(C(F)(F)F)ccc1Cl` here?
A: The Potency was “inactive”.

Q: With `CC(C)(C)c1nn(-c2ccccc2)c2nc(Cl)c(C=O)cc12` as the compound, how does the Potency read?
A: Its Potency is inconclusive [inhibitor, single point].

Q: Which Potency does the source give for `O=C(O)C1CCCN1S(=O)(=O)c1ccc(Br)cc1` (stereo not given) here?
A: Its Potency is “inactive”.

Q: For `CCN(Cc1ccccc1)C(=O)c1cc(COc2c(F)cccc2F)on1`, which Potency is on record?
A: The Potency was inconclusive [inhibitor, single point].

Q: For `OCCC1CN(Cc2cnc(-c3ccc(Cl)cc3)nc2)CCN1C1CCCCC1` (stereo not given), which Potency is on record?
A: Its Potency is inconclusive [inhibitor, single point].

Q: Which Potency does the source give for `Cc1cc(=O)oc2c3c(cc(OCC(=O)NCc4ccccn4)c12)OC(C)(C)CC3` here?
A: The Potency was inconclusive [inhibitor, single point].

Q: Which Potency does the source give for `O=P(NCc1ccccc1)(OCc1ccccc1)OCc1ccccc1` here?
A: Its Potency is inconclusive [inhibitor, single point].

Q: For `CC(C)C(=O)N1CCN(c2nc(-c3ccccc3)c3c(c2C#N)CCCC3)CC1`, which Potency is on record?
A: The Potency was inconclusive [inhibitor, partial curve].

Q: With `O=C(CSc1nc(-c2ccccc2)cc(C(F)(F)F)n1)N1CCOCC1` as the compound, how does the Potency read?
A: The Potency was “inactive”.

Q: With `Cc1ccc(C)c(NC(=O)CN(C)C(=O)c2ccc(-c3cccc(C(F)(F)F)c3)o2)c1` as the compound, how does the Potency read?
A: The Potency was inconclusive [inhibitor, single point].

Q: With `CCC(=O)N1CCc2cc(S(=O)(=O)NC(Cc3ccccc3)C(=O)Nc3ccc(C)cc3)ccc21` (stereo not given) as the compound, how does the Potency read?
A: The Potency was active: 16.4 µM.

Q: Which Potency does the source give for `COC(=O)C(Cc1cccc(C)n1)(c1ccccc1)c1ccccc1` here?
A: Its Potency is inconclusive [inhibitor, single point].

Q: For `O=C(CC1Sc2ccc(C(F)(F)F)cc2NC1=O)Nc1ccc(Cl)c(C(F)(F)F)c1` (stereo not given), which Potency is on record?
A: Its Potency is inconclusive [inhibitor, single point].

Q: With `CC(C)(C)NC(=O)NC(=O)CN1C(=O)NC(c2ccccc2)(c2ccccc2)C1=O` as the compound, how does the Potency read?
A: Its Potency is inconclusive [inhibitor, single point].

Q: With `CCN1CCN(c2cc(C)c3cc(NC(=S)N4CCCC4)ccc3n2)CC1` as the compound, how does the Potency read?
A: The Potency was “inactive”.

Q: With `COCCN1C=C(C(=O)OC)C(c2ccccc2C(F)(F)F)C(C(=O)OC)=C1` as the compound, how does the Potency read?
A: The Potency was inconclusive [inhibitor, single point].

Q: For `O=C(c1ccc(-c2cccc(C(F)(F)F)c2)o1)N1CCN(c2ccccc2)CC1`, which Potency is on record?
A: The Potency was “inactive”.

Q: Which Potency does the source give for `O=C(COC(=O)CNC(=O)c1cccc([N+](=O)[O-])c1)Nc1cccc(S(=O)(=O)N2CCCC2)c1` here?
A: Its Potency is inconclusive [inhibitor, single point].

Q: Which Potency does the source give for `Cc1cc(N2CCCC(C(=O)Nc3ccc4c(c3)CCC4)C2)n2ncnc2n1` (stereo not given) here?
A: Its Potency is inconclusive [inhibitor, single point].

Q: With `O=C(c1cccc(Cl)c1)N1CCN(Cc2ccc3c(c2)OCO3)CC1` as the compound, how does the Potency read?
A: Its Potency is “inactive”.

Q: Which Potency does the source give for `NC(=S)N/N=C1\CC(c2ccc3c(c2)OCCCO3)Oc2ccc(F)cc21` (stereo not given) here?
A: Its Potency is active: 2.59 µM.

Q: Which Potency does the source give for `CCOC(=O)c1cccc(NC(=O)COc2nsnc2N2CCOCC2)c1` here?
A: Its Potency is inconclusive [inhibitor, single point].

Q: For `Cc1ccc(Nc2ncnc3c2nnn3Cc2ccccc2)cc1`, which Potency is on record?
A: The Potency was “inactive”.

Q: With `COC(=O)C(C(=O)Nc1ccc(OC)cc1)C1CCCCCC1` (stereo not given) as the compound, how does the Potency read?
A: Its Potency is inconclusive [inhibitor, single point].

Q: With `CCOC1=C2CN(S(=O)(=O)c3ccc(C)cc3)C(c3cccc(Cl)c3)CC2N(S(=O)(=O)c2ccc(C)cc2)C(c2ccncc2)C1` (stereo not given) as the compound, how does the Potency read?
A: The Potency was active: 14.6 µM.

Q: With `COc1ccccc1-n1cnnc1SCC(=O)NCC1CCCO1` (stereo not given) as the compound, how does the Potency read?
A: The Potency was “inactive”.

Q: Which Potency does the source give for `CCN1C(=O)c2ccccc2Sc2ccc(NC(C)=O)cc21` here?
A: Its Potency is “inactive”.

Q: Which Potency does the source give for `CC(NC(=O)CCCc1nnc2n(C)c(=O)c3sccc3n12)c1ccccc1` (stereo not given) here?
A: Its Potency is “inactive”.

Q: For `CSCCC(=O)N1CCCC(CNC(=O)c2ccc(-c3ccccc3)cc2)C1` (stereo not given), which Potency is on record?
A: The Potency was inconclusive [inhibitor, single point].

Q: Which Potency does the source give for `O=c1cc(CN2CCN(c3ccccc3)CC2)nc2scc(-c3ccccc3)n12` here?
A: The Potency was inconclusive [inhibitor, single point].

Q: With `CC(O)(c1ccccc1)c1nc(-c2cccc(C(F)(F)F)c2)cs1` (stereo not given) as the compound, how does the Potency read?
A: Its Potency is inconclusive [inhibitor, single point].

Q: With `CCOc1ccc(-c2cc(OC(=O)c3ccc(F)cc3)c3c(C)oc(C)c3c(=O)c2)cc1` as the compound, how does the Potency read?
A: The Potency was inconclusive [inhibitor, single point].

Q: With `Cc1ccc(N/C=C(\C#N)c2ccc(OCCCF)cc2)cc1` as the compound, how does the Potency read?
A: The Potency was inconclusive [inhibitor, partial curve].

Q: Which Potency does the source give for `CCOc1ccc(-n2c(SCc3ccc(C(=O)OC)o3)nc3c([nH]c4ccccc43)c2=O)cc1` here?
A: The Potency was active: 23.1 µM.

Q: For `CCCc1cc(=O)[nH]c(Nc2cccc(Cl)c2Cl)n1`, which Potency is on record?
A: The Potency was inconclusive [inhibitor, single point].

Q: With `CN(C(=O)CSc1nnc(-c2ccncc2)n1C)C1CCS(=O)(=O)C1` (stereo not given) as the compound, how does the Potency read?
A: Its Potency is “inactive”.

Q: Which Potency does the source give for `COc1ccc(C(=O)/C=C/c2cn(CC(O)CN3CCN(C)CC3)c3ccccc23)cc1OC` (stereo not given) here?
A: The Potency was inconclusive [inhibitor, single point].

Q: For `COc1ccc(CCNC(=O)c2cc3c(-c4ccccc4F)nn(C)c3s2)c(OC)c1`, which Potency is on record?
A: The Potency was active: 6.51 µM.

Q: Which Potency does the source give for `COc1cccc(/C=N/NC(=O)c2cc3c(OC)c(OC)ccc3[nH]2)c1OC` here?
A: The Potency was active: 2.31 µM.

Q: Which Potency does the source give for `CCCNc1nc(NCC)nc(OC)n1` here?
A: The Potency was “inactive”.

Q: For `CSc1nc2ccccc2c(=O)n1C1CCCCC1`, which Potency is on record?
A: Its Potency is inconclusive [inhibitor, partial curve].

Q: For `Cc1ccc(C)c(OCCC(=O)N2CCN(S(=O)(=O)c3cc(C)ccc3C)CC2)c1`, which Potency is on record?
A: Its Potency is inconclusive [inhibitor, single point].

Q: For `CCCc1nc2ccc(NC(C)=O)cc2c(=O)n1Cc1cccc(Cl)c1`, which Potency is on record?
A: Its Potency is inconclusive [inhibitor, single point].
